Source: ChEMBL document CHEMBL4888484, “Replenishing the malaria drug discovery pipeline: Screening and hit evaluation of the MMV Hit Generation Library 1 (HGL1) against asexual blood stage Plasmodium falciparum ,using a nano luciferase reporter read-out” (2022)
Hit rate of the full screen: of about 150,000 compounds, about 540 (0.36%) showed an effect of 50% or more. Some of the results follow.

Each molecule was assayed on Plasmodium falciparum (assay: Primary screen in NF54 nanoGlo assay, in single point, at 2uM, 72h; a lower Z score goes with more inhibition). Settings: timepoint 72 hour.
Type: functional, Erythrocyte

SMILES	% Inhibition	Z score
CCN1CCN(c2nc(C)c(C#N)cc2Cl)CC1=O	-10%	1.56
CCCCC(N)C(=O)N1CCC2OCCCC2C1 (stereo not drawn)	-9%	1.01
COc1ccc(OC)c(CNc2cc[nH]n2)c1	-5%	0.8
CCN(C(=O)[C@H]1CCCN(S(=O)(=O)c2ccc3c(c2)NC(=O)CO3)C1)c1ccccc1	4%	-0.69
CC(C)(F)c1cc(NS(=O)(=O)c2cncc(F)c2)no1	-18%	3.02
CCc1cc(Br)cc2c1N(C(=O)c1ncn(C)n1)CCC2	2%	-0.44
CN(CCc1ccccn1)Cc1cc2ccc(F)cc2n(CCN2CCCCC2)c1=O	-18%	2.13
COC(=O)C[C@@H]1Oc2ccccc2N(CCn2cnnc2C)C1=O	-15%	1.37
C[C@@H](C(=O)Nc1nc(-c2ccccn2)cs1)n1nc2c(cc1=O)CCC2	35%	-1.56
Cc1ccc(-n2nnc(-c3nc(C)c(C(=O)NCc4ccco4)s3)c2C)cc1	-8%	1.43
COc1ccc(-n2nc(C)c3c2NC(=O)C[C@@H]3c2cc(Cl)ccc2F)nn1	1%	-0.07
COc1ccc(-c2noc3nc(C4CC4)cc(C(=O)Nc4c(C)noc4C)c23)cc1	28%	-3.14
CC(C)(C)OC(=O)NC1CC(NCC(O)c2ccco2)C12CCC2 (stereo not drawn)	0%	0.02
Cc1cc(C)nc(NCCC(=O)NCCc2nccs2)n1	-18%	2.47
CC(C)CC(=O)N1CCC2(CC1)NC(=O)c1cc(Cl)ccc1N2	-9%	1.79
CCS(=O)(=O)N(C)CCCNc1nccc2oc(C)cc12	-2%	0.18
CC[C@H]1COC(C)(C)CN1c1cc(C)nc(C)n1	6%	-0.71
CO[C@@]12CC[C@@H](OCCO)C[C@@H]1N(Cc1cc(C)ccc1F)CC2	3%	-0.35
Cc1noc(C(=O)Nc2ccccc2C(C)C)n1	-4%	0.39
CC(C)[C@H](Nc1ccc2nccnc2n1)c1nnc2n1CCC2	32%	-0.29
CCOC[C@H](C)OC(=O)c1cnc(C)nc1C	2%	-0.29
CS(=O)(=O)Nc1cccc2c1CCN(CC1(C(F)(F)F)CC1)C2	-7%	0.86
Nc1ncnc(NCc2cccc(Cn3ccnc3)c2)c1Cl	2%	-0.29
CCC[C@](C)(O)C(=O)Nc1cccc(C)c1O	7%	-1.31
